# Test results reported in publication PMC12040169 (PLOS Biology, 2025).
# Like-named read-outs stand apart in the source and are kept apart here. The list shows a part of the results.
# System: T1, C. trachomatis L2/434/Bu expressing GFP (CTL2-GFP)
# T1 construct: L2/434/Bu GFP intracellular growth in HeLa cells
# Design: species or system HeLa; C. trachomatis total inclusion area by high-content imaging, normalised to DMSO
# Method in brief: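 Host cell viability was gauged from Hoechst-stained nuclei counts, while chlamydial growth was taken from total inclusion area and inclusion number per well. Cells were fixed and imaged by high-content microscopy once bulk GFP and resorufin fluorescence had been measured.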
# [1] = total inclusion area; 28.5 h, 10 µM; inhibitor
Compound,% of control remaining [1],"% of control remaining (total inclusion area, 28.5 h, 10 µM, inhibitor)"
CSCCN1CCC(Oc2cncc(OCC3COc4ccccc4O3)n2)C1 (stereo not shown) [CBK084381],89.09,–
O=C(O)c1ccc(CNCc2c(F)cccc2Cl)cc1 [CBK269496],–,99.6625
Cc1ccc(C(C)C)c(OCc2ccc(C(=O)O)o2)c1 [CBK078089],97.2005,–
CCc1ccc(NC(=N)Nc2nc(CSc3ncccn3)cc(=O)[nH]2)cc1 [CBK268836],109.628,–
OCc1ccccc1-c1cn2ccnc2c(Nc2ccccc2)n1 [CBK037999],122.45,–
Cc1ccccc1NC(=O)NCCCN1CCN(C)CC1 [CBK267837],99.8969,–
CCOc1ccc(-n2c(N)c(C(=O)NCc3ccco3)sc2=S)cc1 [CBK265578],102.839,–
COc1ccc(S(=O)(=O)N2CCN(C(=O)c3cc(-c4cccnc4)nc4c(C)cc(C)cc34)CC2)cc1OC [CBK267767],73.5341,–
Cc1nc(CCNC(=O)c2nn(-c3cccc(C(C)C)c3)cc2O)cs1 [CBK305438],144.37,–
O=C(Nc1ccc(N2CCNCC2)nc1)C1CCC1 [CBK004743T],113.886,–
O=C(CCN1C(=O)c2ccccc2C1=O)N1CCOCCOCCN(C(=O)CCN2C(=O)c3ccccc3C2=O)CCOCCOCC1 [CBK260964],91.7156,–
Cc1occc1-c1nn(C2CCNCC2)c(=O)o1 [CBK284757],85.4205,–
Cc1ccc(C(=O)Nc2ncn(CC(=O)N3CCCCCC3)n2)cc1 [CBK304569],37.594,–
O=C(CCC(=O)c1ccc2c(c1)Cc1ccccc1-2)Nc1ccc(C(=O)O)cc1 [CBK268673],103.255,–
CCc1c(C)nc2ccccc2c1SCC(=O)O [CBK153279],107.83,–
COc1cccc(-c2nnc(SCc3nc4ccccc4[nH]3)n2N)c1 [CBK267549],105.749,–
Cn1sc(=O)c2cc(S(=O)(=O)NC3CC3)ccc21 [CBK009163],75.723,–
O=C(c1cc(F)c(F)cc1F)N1CCC2(CCN(Cc3nc4ccccc4[nH]3)C2)C1 (stereo not shown) [CBK132134],90.9262,–
COc1ccccc1OCCn1c(=N)n(CC(N)=O)c2ccccc21 [CBK268822C],105.916,–
Cc1ccc(NC(=O)CSCc2nc3ccccc3[nH]2)cc1 [CBK267299],103.645,–
Cc1nnc(S)n(Cc2ccc(F)cc2)c1=O [CBK288502],114.139,–
C[C@H](Nc1nccnc1-c1cccc(O)c1)c1ccccc1 [CBK037180],95.0445,–
CC(=O)NCCSc1ccc(C(F)(F)F)cn1 [CBK105298],95.2263,–
Cc1cc2nc(-c3ccc(C(=O)O)cc3)[nH]c2cc1C [CBK096054],121.468,–
COc1ccc(CNC(=O)Cn2nc3c(SCc4ccc(Cl)cc4)nccn3c2=O)cc1 [CBK300541],93.7583,–
O=C(c1ccc2nccnc2c1)N1CCCc2ccccc21 [CBK200257],41.208,–
COc1ccccc1N1CCN(C(=O)NCCCN2CCCC2=O)CC1 [CBK155612],95.0514,–

Compound,% of control remaining [1],"% of control remaining (total inclusion area, 28.5 h, 10 µM, inhibitor)"
O=C1N[C@@H]2CCN(Cc3cnccn3)C[C@H]2C/C=C/CC2(CCOCC2)C(=O)N[C@H]1Cc1ccccc1 [CBK292189],86.526,–
COc1ccc(Cl)cc1NC(=O)COc1cccc2ccccc12 [CBK262995],101.144,–
O=C(CSCc1ccccc1)Nc1ccc(S(=O)(=O)N2CCOCC2)cc1 [CBK087885],117.92,–
COc1ccc(Cl)cc1NC(=O)CN(c1cc([N+](=O)[O-])ccc1C)S(C)(=O)=O [CBK266394],115.947,–
O=C(NC/C=C/c1cn(C2OC(CO)C(O)C2O)c(=O)[nH]c1=O)C(F)(F)F (stereo not shown) [CBK201298],83.7079,–
Cc1cc2cn([C@H]3C[C@@H](O)[C@@H](CO)O3)c(=O)nc2o1 [CBK201287],106.518,–
O=C(NCc1cccc(OCC2CCCO2)c1)C1C2CCCCC21 (stereo not shown) [CBK281517],96.952,–
C/C(=N/OCO/N=C(\C)c1cccc([N+](=O)[O-])c1)c1cccc([N+](=O)[O-])c1 [CBK260872],97.003,–
O=C(O)C1Nc2c(Cl)cc(Cl)cc2C2C=CCC12 (stereo not shown) [CBK077855],106.199,–
O=C(c1cc[nH]c1)N1CCN(C(=O)c2ccco2)CC1 [CBK144467],100.279,–
CC(C)(C)c1ccc(NC(=O)n2ccc3c(N4CCNCC4)cccc32)cc1 [CBK003736C],0,–
N#Cc1ccc(Cn2cnc(NC(=O)c3cnccn3)n2)cc1 [CBK305233],54.5866,–
O=C(Nc1ccccc1C(F)(F)F)NC1CC2CCCC(C1)N2C1CC1 (stereo not shown) [CBK143578],105.47,–
Cc1cc(NC(=O)c2cccc(C#N)c2)c2ccccc2n1 [CBK116267],110.363,–
CC(C)Cn1cnc2c(c1=N)C(c1ccccc1)c1ccc(O)cc1O2 (stereo not shown) [CBK287864],110.17,–
CCn1c2ccccc2c2cc(NC(=O)CC(C)CC(=O)O)ccc21 (stereo not shown) [CBK300031],79.878,–
COCCCNC(=O)Cn1cnc2sc(C)cc2c1=O [CBK071899],98.875,–
c1ccc(Oc2ccccc2-c2cc(NCCc3c[nH]cn3)ncn2)cc1 [CBK037845],63.174,–
O=C(NC(c1ccc(Cl)cc1)c1cnccn1)C1CCN(C(=O)N2CCOCC2)CC1 (stereo not shown) [CBK059635],104.945,–
CC(=O)N[C@H]1CC[C@]2(C)CCC([C@H](C)C(=O)N(C)Cc3ccccc3)[C@H](O)[C@H]2[C@@H]1C (stereo partly shown) [CBK289435],91.3026,–
C[C@H]1[C@@H]2[C@@H](O)C([C@H](C)C(=O)N3CCCCC3)CC[C@@]2(C)CC[C@@H]1NC(=O)C1CC1 (stereo partly shown) [CBK289446],105.024,–
CNCC(=O)N(CCc1cc(C(F)(F)F)cc(C(F)(F)F)c1)c1ccc2c(c1)OCO2 [CBK001038T],106.145,–
N#Cc1cccc(Nc2cncc(-c3cccc(N)c3)n2)c1 [CBK065319],113.963,–
Cc1cc(C)cc(-c2nnc(SCCC(=O)NC(N)=O)o2)c1 [CBK295164],111.57,–
O=C(CSc1nc2ccccc2c2nc3ccccc3n12)Nc1ccc(Cl)cc1F [CBK268098],106.063,–
O=C1CC(C(=O)Nc2ccc3c(c2)OCO3)n2c(nc3ccccc32)N1 (stereo not shown) [CBK270177],96.5109,–
CN(Cc1ccccc1)c1ncc(-c2ccc(N3CCOCC3)cc2)n2ccnc12 [CBK091275],122.584,–

Compound,% of control remaining [1],"% of control remaining (total inclusion area, 28.5 h, 10 µM, inhibitor)"
CN(C1=NS(=O)(=O)c2ccccc21)c1ccccc1C(=O)O [CBK287094],109.012,–
O=C(CCN1CCN(CCO)CC1)Nc1cccc(Br)c1 [CBK058502],41.6237,–
CCC(C(=O)Nc1nccs1)N(C)Cc1n[nH]c2c1CCC2 (stereo not shown) [CBK307685],78.0127,–
COCc1cc(C[C@@H]2C[C@H](NS(C)(=O)=O)C2(C)C)no1 [CBK289252],111.766,–
CC(C)S(=O)(=O)N1CC2CCCC(O)(c3cccc(F)c3)C2C1 (stereo not shown) [CBK283109],93.7707,–
O=c1[nH]c2ccccc2nc1-c1ccccc1 [CBK016193],78.4904,–
Cc1csc(C(Cc2ccsc2)NC(=O)CCn2ccnc2)n1 (stereo not shown) [CBK285391],85.7583,–
Cc1c(C(=O)N2CCn3nc(CO)cc3C2)n(C)c2ccc(F)cc12 [CBK306552],88.7039,–
Cn1ncc2c(=O)n(Cc3nc(C(C)(C)C)no3)cnc21 [CBK304906],31.3347,–
CN(C)c1cccc(-c2cnc3[nH]c(=O)n(CCc4ccncc4)c3n2)c1 [CBK064628],107.027,–
CN(Cc1ccco1)C(=O)NC1CCCc2c1cnn2CCO (stereo not shown) [CBK306290],74.3199,–
O=C1NCCNC(=O)C2(C/C=C/COc3ccccc31)CCN(C(=O)c1ccc3[nH]nnc3c1)CC2 [CBK292000],77.5558,–
O=C(c1cncnc1)N1CCCC2(CCN(C(=O)c3cc(F)c(F)cc3F)C2)C1 (stereo not shown) [CBK131564],52.6497,–
C[C@]12CN(C(=O)c3ccccc3)C[C@H]1NC(=O)c1ccccc1C2=O [CBK281657],76.037,–
Cc1cc(C)n(CC(C)CNC(=O)Cc2csc(N3CCCC3=O)n2)n1 (stereo not shown) [CBK305624],40.3102,–
CN1CCC(N(C)C(=O)Nc2ccc3c(c2)OCCO3)C1 (stereo not shown) [CBK156008],69.2102,–
CCCCC(=O)N(C)c1c(C)nc2ccc(C(=O)NCc3cccs3)cn12 [CBK147073],97.3699,–
O=C(O)C(Nc1nc(C(F)(F)F)nc2ccccc12)c1ccccc1 (stereo not shown) [CBK269570],84.6813,–
COC(=O)c1sccc1NS(=O)(=O)c1cc(F)c(Br)cc1F [CBK004492],90.7374,–
Cc1[nH]n(-c2nc3ccccc3o2)c(=O)c1Cc1c(Cl)cccc1Cl [CBK085382],44.1849,–
COc1ccccc1N1CCN(C(=O)N(CCN)CCC(C)c2ccccc2)CC1 (stereo not shown) [CBK002137C],3.217,–
COC(=O)c1ccc(N2C(=O)CC(N3CCC(n4c(=O)[nH]c5ccccc54)CC3)C2=O)cc1 (stereo not shown) [CBK268714],96.8734,–
Clc1ccccc1-c1nccnc1NCCc1c[nH]c2ccccc12 [CBK037337],90.4607,–
Cc1ccc2[nH]c(-c3cccc(NC(=O)c4ccc(-n5cnnc5)cc4)c3)nc2c1 [CBK285839],71.4595,–
Cc1ncccc1-c1cc2cccnc2n1CCCNC(=O)C1CC1C (stereo not shown) [CBK282688],129.154,–
